Test results reported in PubChem BioAssay AID493208 (National Center for Advancing Translational Sciences (NCATS), 2011).
About 340 (0.77%) of roughly 44,000 compounds were called active. Roughly 5% stayed inconclusive and do not appear here. Calls come from the whole dose curve; as a rule, active = well fitted inhibition curve with a large enough effect; inconclusive = small, poorly fitted or top-dose-only effect; inactive = flat fitted curve, though single readings scatter. This is one part of the list.

Assay: Acumen qHTS Assay for Inhibitors of the mTORC1 Signaling Pathway in MEF (Tsc2-/-, p53-/-) Cells: Sytravon;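 note: plate controls were DMSO for no effect and rapamycin for full effect; nearly all actives have a fitted effect of over 50% in size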
Details: phospho-rpS6 immunofluorescence/PI, 24 h; series mostly up to 38.3 µM; activity change, negative = inhibition: at the top concentration
Method in brief: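 Tsc2-/-, p53-/- mouse embryonic fibroblasts (empty-vector line) exposed to compound 24 hrs at 37 C, fixed, immunostained for phospho-rpS6 and counterstained with propidium iodide. Acumen laser scanning gives % positive cells from Alexa 488/PI ratio, thresholded using 7.5 nM rapamycin; PI count gives viability.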

Activity change, negative = inhibition, inactive:
COCCCNC(=O)CCCn1c(=O)c2cccn2c2ccccc21 7.33%
COc1ccccc1CNC(=O)CCC1N=C2c3ccccc3N=C(SCc3ccc(Cl)cc3)N2C1=O (stereo unspecified) -3.99%
O=C1CCCc2cc(S(=O)(=O)NCC3CCC(C(=O)NCc4ccc(F)cc4)CC3)ccc2N1 (stereo unspecified) -1.75%
Cc1ccc(N2CCN(S(=O)(=O)c3ccc(Cl)c4ccccc34)CC2)c(C)c1 -3.15%
O=C(CSc1nnc(-c2cccc(F)c2)c(-c2cccc(F)c2)n1)NC1CCCCC1 -2.2%
O=C(Cn1ncc2c(=O)oc3ccccc3c21)N1CCN(c2ccc(Cl)cc2)CC1 -0.898%
COc1cccc(CSc2nc(-c3ccccc3F)nc3c2Cc2c(CO)cnc(C)c2O3)c1 -1.22%
COc1ccc(-n2nc3c(N4CCC(C(=O)NCCc5ccccc5)CC4)nnc(C)c3c2C)cc1 0.636%
COc1cc(Cl)c(C)cc1NC(=O)c1cnn(-c2ccc(F)cc2F)c1C1CCN(C(=O)OC(C)(C)C)CC1 -7.83%
COc1ccc2cc(CNc3ccc(C)cc3)c(=O)n(CC(=O)Nc3cccc(Cl)c3C)c2c1 -9%
CC(C)(C)c1ccc(C(=O)N(Cc2ccc(F)cc2)Cc2ccco2)cc1 -14.6%
Cc1ccc(-c2nnc(Nc3ccccc3)c3ccccc23)cc1S(=O)(=O)N1CCN(C)CC1 -11.8%
CCOC(=O)c1c(NC(=O)COc2ccccc2Br)sc2c1CCCCC2 -2.1%
COc1ccc(-c2nc(CSc3nnc(C)n4c3cc3oc(C)cc34)c(C)o2)cc1OC 3.36%
O=C(c1cccs1)N(Cc1cccnc1)c1nc2c(F)cc(F)cc2s1 -9.13%
CCn1cc2nc(SCc3ccc(F)cc3)n(CCc3ccccc3)c(=O)c2n1 4.28%
CCN(CCCNC(=O)c1ccc(Sc2ccc(Cl)cc2)c(NC(C)=O)c1)c1ccccc1 -9.8%
CCN(CC)S(=O)(=O)c1nnc(NC(=O)c2ccc(Br)cc2)s1 -0.0935%
Cc1cc(NC(=O)Cn2c(=O)oc3cc(S(=O)(=O)N4CCCC4)ccc32)ccc1Br -8.22%
COc1ccc(CCNC(=O)C2CCCN(S(=O)(=O)c3ccc4c(c3)oc(=O)n4C)C2)cc1OC (stereo unspecified) 2.35%
Cc1ccc(CNC(=O)CCc2cn(Cc3ccc(C)cc3)c3ccccc23)cc1 3.7%
CCOc1ccc(-c2cc3nc(C4CCN(C(=O)OC(C)(C)C)CC4)c(C(=O)Nc4c(C)cccc4C)cn3n2)cc1 0.36%
Cc1cc(C)c(Cn2c(=O)n(CCCCC(=O)NCc3ccccc3Cl)c(=O)c3ccccc32)c(C)c1 -1.88%
CCOC(=O)c1c(C)sc(-c2c(-c3cccc(Cl)c3)[nH]c3c2c(=O)n(C)c(=O)n3C)c1O -0.385%
COc1ccc(NC(=O)C2=C(C)Nc3ncnn3C2c2ccc[nH]2)cc1 (stereo unspecified) -0.0561%
Cc1c(C(=O)N(C)C)sc2c1c(=O)n(-c1ccc(F)cc1)c(=O)n2Cc1ccccc1C#N 0.536%
CCc1ccccc1N(C)S(=O)(=O)c1ccc2c(c1)C(C)(C)C(=O)N2C -3.79%
Fc1ccc2c(c1)-c1c(cnc3cc(-c4ccc(Cl)cc4)nn13)CO2 7.06%
CC(=O)N1CCc2cc(CNC(=O)Nc3ccc(Br)c(C)c3)ccc21 0.104%
COc1cccc(NC(=O)c2csnn2)c1 -6.56%
C=Cc1ccc(Cn2ccn(-c3ccc(F)c(F)c3)c(=O)c2=O)cc1 -4.54%
Cc1ccc(C(=O)Nc2ccc3[nH]c(=O)c(=O)[nH]c3c2)cc1 2.59%
CC(C)Oc1ccc(CNC(=O)Cn2c(-c3cccs3)cc3ccccc32)cc1 -9.99%
COc1cc(NC(=O)CC2C(=O)N(c3cccc(C)c3)C(=O)N2Cc2cccs2)cc(OC)c1 (stereo unspecified) -0.445%
Cc1ccc(C2CCN(C(=O)Nc3ccc(C)c(C)c3)C2)cc1 (stereo unspecified) 1.27%
COc1cccc(C(=O)Nc2ccc(S(=O)(=O)N(Cc3ccccc3)c3ccccc3)cc2)c1 -1.46%
CCS(=O)(=O)N1CCc2cc(C(=O)NCCc3ccc(OC)c(OC)c3)ccc21 -2.7%
Cc1cc(C)c(S(=O)(=O)NCCc2csc3nc(-c4ccc(Cl)cc4)nn23)c(C)c1 -3.17%
CC(=O)c1ccc(N2CCN(C(=O)C3CCN(S(=O)(=O)c4c(C)noc4/C=C/c4ccccc4F)CC3)CC2)cc1 -9.22%
Cc1ccc(C)c(N2CCN(c3nc4ccccc4c(=O)n3-c3ccccc3)CC2)c1 -13.5%
O=c1c2c3c(sc2n(Cc2ccc(F)cc2Cl)c(=O)n1-c1ccc(Cl)cc1)CCC3 0.349%
Cc1ccc(NC(=O)c2sc3ncnc(N(C)C4CCCCC4)c3c2C)cc1 -2.71%
Cc1ccccc1OCc1ccc(-c2nc(C#N)c(N3CCC(C(N)=O)CC3)o2)o1 -7.4%
CCOc1ccc2cc(-c3nnc(Nc4ccc(C)cc4)s3)c(=O)oc2c1 -8.06%
CC(=O)Nc1ccc(S(=O)(=O)NCCS(=O)(=O)N2CCN(c3ccccc3F)CC2)cc1 -3.11%
COc1cccc(Nc2nc3ccc(C(=O)c4ccccc4)cc3n3c(C)nnc23)c1 0.0108%
